In all, about 310,000 compounds went through this assay and about 14,000 (4.5%) showed an effect of 50% or more. Effects have a minus sign here. The list shows a part of the results.
biological target: human ether-à-go-go-related gene (hERG) potassium channel (human, UniProt Q12809); test: primary screen, population patch clamp on CHO cells stably expressing hERG
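Also: peak tail current of the secondary pulse compared with the same well before compound.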

Sequence of human ether-à-go-go-related gene (hERG) potassium channel (Q12809 whole entry, looked up): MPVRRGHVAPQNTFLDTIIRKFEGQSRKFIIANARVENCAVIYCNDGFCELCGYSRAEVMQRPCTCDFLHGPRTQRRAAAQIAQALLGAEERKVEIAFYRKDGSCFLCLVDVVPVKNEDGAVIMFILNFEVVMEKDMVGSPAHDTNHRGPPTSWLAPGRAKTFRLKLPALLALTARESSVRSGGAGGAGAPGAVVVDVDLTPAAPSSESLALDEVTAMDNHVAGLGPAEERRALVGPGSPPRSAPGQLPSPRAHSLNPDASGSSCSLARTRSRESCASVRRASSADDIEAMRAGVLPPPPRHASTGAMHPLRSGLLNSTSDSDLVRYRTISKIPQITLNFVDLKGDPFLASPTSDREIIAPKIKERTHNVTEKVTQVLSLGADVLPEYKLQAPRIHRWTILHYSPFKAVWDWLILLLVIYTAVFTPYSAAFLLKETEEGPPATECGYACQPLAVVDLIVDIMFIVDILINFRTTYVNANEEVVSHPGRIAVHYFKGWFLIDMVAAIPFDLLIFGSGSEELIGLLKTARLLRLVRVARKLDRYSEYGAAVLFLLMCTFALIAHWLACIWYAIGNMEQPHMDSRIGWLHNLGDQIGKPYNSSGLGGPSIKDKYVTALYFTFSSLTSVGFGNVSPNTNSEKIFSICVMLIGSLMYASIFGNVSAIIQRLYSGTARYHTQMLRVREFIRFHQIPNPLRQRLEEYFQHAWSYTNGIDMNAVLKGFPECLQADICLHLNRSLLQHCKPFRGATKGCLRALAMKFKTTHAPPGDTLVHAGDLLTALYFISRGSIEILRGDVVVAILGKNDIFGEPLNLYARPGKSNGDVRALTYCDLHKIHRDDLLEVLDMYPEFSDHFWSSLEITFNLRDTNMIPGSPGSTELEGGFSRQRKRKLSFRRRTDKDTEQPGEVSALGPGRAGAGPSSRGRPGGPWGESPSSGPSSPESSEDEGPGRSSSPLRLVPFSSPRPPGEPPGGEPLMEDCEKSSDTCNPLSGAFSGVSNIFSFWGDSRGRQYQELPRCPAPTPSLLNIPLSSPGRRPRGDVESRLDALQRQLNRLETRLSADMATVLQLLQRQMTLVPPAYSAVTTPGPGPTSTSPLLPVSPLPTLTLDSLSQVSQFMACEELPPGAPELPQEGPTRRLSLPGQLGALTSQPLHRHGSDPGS

**Q.** Which “hERG current change (%, negative = inhibition) at 10uM” value does the source give for O=C(OCc1nc2ccc(Cl)cc2n1CCO)c1ccccc1C(=O)c1ccccc1 here?
**A.** -9.65%

**Q.** Cc1ccc(N(C)C(=O)n2cnc3ccccc32)cc1 was tested. Which “hERG current change (%, negative = inhibition) at 10uM” value did it give?
**A.** -1.52%

**Q.** Which “hERG current change (%, negative = inhibition) at 10uM” value does the source give for O=C(c1cnc2ccccn2c1=O)N1CCc2ccccc21 here?
**A.** -18.9%

**Q.** Which “hERG current change (%, negative = inhibition) at 10uM” value does the source give for COCCCNC(=O)C1CCN(C(=O)Nc2ccc(Cl)cc2)CC1 here?
**A.** 14%

**Q.** Which “hERG current change (%, negative = inhibition) at 10uM” value does the source give for COc1ccc(CCNC(=O)CSc2nc3ncccc3[nH]2)c(OC)c1 here?
**A.** -11.2%

**Q.** Cc1nc2ccccn2c1C(=O)NC1CCCCC1 was tested. Which “hERG current change (%, negative = inhibition) at 10uM” value did it give?
**A.** 1.83%

**Q.** How did the “hERG current change (%, negative = inhibition) at 10uM” value turn out when CC12CN3CC(C)(CN(C1)C3c1cc(Br)ccc1O)C2=O (stereo not drawn) was run?
**A.** -2.08%

**Q.** With COc1ccc(-c2c(NC(=O)c3ccco3)oc3c(C)cccc3c2=O)cc1OC as the compound, how does the “hERG current change (%, negative = inhibition) at 10uM” value read?
**A.** 20%

**Q.** For Cc1cccc(C)c1NC(=S)Nc1ccc(Cl)c(Cl)c1, which “hERG current change (%, negative = inhibition) at 10uM” value is on record?
**A.** -3.7%

**Q.** How did the “hERG current change (%, negative = inhibition) at 10uM” value turn out when O=S(=O)(NCc1ccccn1)c1ccc(Br)s1 was run?
**A.** 3.16%

**Q.** For CCCCc1ccc(S(=O)(=O)NNC(=S)NCc2ccco2)cc1, which “hERG current change (%, negative = inhibition) at 10uM” value is on record?
**A.** 3.87%

**Q.** Which “hERG current change (%, negative = inhibition) at 10uM” value does the source give for CC(C)C(OC(=O)CN1C(=O)COc2ccccc21)C(=O)NC1CCCCC1 (stereo not drawn) here?
**A.** -9.89%

**Q.** How did the “hERG current change (%, negative = inhibition) at 10uM” value turn out when CC(C)CNC(=O)c1cccc2c1-c1ccccc1C2=O was run?
**A.** 12.7%

**Q.** For N#Cc1ccc[n+](CC(=O)c2ccc(Cl)cc2)c1.[Br-], which “hERG current change (%, negative = inhibition) at 10uM” value is on record?
**A.** 8.1%

**Q.** [N-]=[N+]=N[C@@H]1C[C@H](n2ccc(=O)[nH]c2=O)O[C@@H]1CO was tested. Which “hERG current change (%, negative = inhibition) at 10uM” value did it give?
**A.** -33.4%

**Q.** Cc1noc(C)c1CSCC(=O)Nc1nc(-c2ccc(F)c(F)c2)cs1 was tested. Which “hERG current change (%, negative = inhibition) at 10uM” value did it give?
**A.** -21%

**Q.** COC(=O)c1cc(S(=O)(=O)NCC2CCN(Cc3cccc(F)c3)CC2)c[nH]1 was tested. Which “hERG current change (%, negative = inhibition) at 10uM” value did it give?
**A.** -16.7%

**Q.** Cc1ccc(-c2ccnc3c(Br)c(C)nn23)cc1 was tested. Which “hERG current change (%, negative = inhibition) at 10uM” value did it give?
**A.** 14.3%

**Q.** With COc1ccc(S(=O)(=O)N(C)c2nc3ccccc3n3c(CC(C)C)nnc23)cc1 as the compound, how does the “hERG current change (%, negative = inhibition) at 10uM” value read?
**A.** -27.6%

**Q.** For CC1=C(c2ccccc2)CCC1=O, which “hERG current change (%, negative = inhibition) at 10uM” value is on record?
**A.** -28.7%

**Q.** With COc1cc2c(cc1OC)CN(C(=O)CNC(=O)c1ccc(OC(F)F)cc1)CC2 as the compound, how does the “hERG current change (%, negative = inhibition) at 10uM” value read?
**A.** -52.5%

**Q.** How did the “hERG current change (%, negative = inhibition) at 10uM” value turn out when CCOCCCNC(=O)C(c1ccc(OC)cc1)N(Cc1ccc2c(c1)OCO2)C(=O)c1ccccc1O (stereo not drawn) was run?
**A.** -1.34%

**Q.** With COc1cc(/C=C/C(=O)OCC(=O)NCc2ccco2)ccc1OCC#N as the compound, how does the “hERG current change (%, negative = inhibition) at 10uM” value read?
**A.** 1.7%

**Q.** Which “hERG current change (%, negative = inhibition) at 10uM” value does the source give for CCc1ccc(NC(=O)CSc2nc3ncc(Br)cc3[nH]2)cc1 here?
**A.** 18.8%

**Q.** For O=C(Nc1ccc2c(c1)OCO2)N1CCCC1, which “hERG current change (%, negative = inhibition) at 10uM” value is on record?
**A.** 22.8%

**Q.** COc1ccc(CCNC(=O)CSc2nc3ccccc3o2)cc1 was tested. Which “hERG current change (%, negative = inhibition) at 10uM” value did it give?
**A.** -6.35%

**Q.** How did the “hERG current change (%, negative = inhibition) at 10uM” value turn out when Cc1cc(S(=O)(=O)NCc2ccccc2)ccc1OCC(=O)NCc1ccncc1 was run?
**A.** -3.71%

**Q.** Which “hERG current change (%, negative = inhibition) at 10uM” value does the source give for Cn1nnnc1SCC(=O)Nc1ccc(N2CCOCC2)cc1 here?
**A.** 5.57%

**Q.** For COc1ccccc1NC(=O)CCCC(=O)OCC(=O)c1ccc(F)cc1, which “hERG current change (%, negative = inhibition) at 10uM” value is on record?
**A.** 5.74%

**Q.** How did the “hERG current change (%, negative = inhibition) at 10uM” value turn out when CCOc1ccc(C(C)=O)cc1CN1C(=O)NC2(CCCCC2C)C1=O (stereo not drawn) was run?
**A.** 2.64%

**Q.** For COCCN1C=C(C(=O)OC)C(c2ccc3c(c2)OCO3)C(C(=O)OC)=C1, which “hERG current change (%, negative = inhibition) at 10uM” value is on record?
**A.** -14.2%

**Q.** Which “hERG current change (%, negative = inhibition) at 10uM” value does the source give for CCC1Cc2c(nc(N)c3c(N)nc(N4CCCCC4)c(C#N)c23)O1 (stereo not drawn) here?
**A.** -35.2%

**Q.** Which “hERG current change (%, negative = inhibition) at 10uM” value does the source give for COc1ccc(N(CC(=O)NC2CCCCC2)C(=O)c2snc(C(N)=O)c2N)cc1 here?
**A.** 0.904%

**Q.** For CNC(=S)N/N=C/c1cc(Br)cc(Br)c1O, which “hERG current change (%, negative = inhibition) at 10uM” value is on record?
**A.** 8.78%

**Q.** With COCC(=O)N1CCC(Oc2ccc(C(=O)N3C[C@H]4CC[C@H]3C4)cc2)CC1 as the compound, how does the “hERG current change (%, negative = inhibition) at 10uM” value read?
**A.** 14.2%

**Q.** How did the “hERG current change (%, negative = inhibition) at 10uM” value turn out when Nc1ccc(NC(=O)c2ccco2)c(Cl)c1 was run?
**A.** 12.9%

**Q.** For O=C(COc1ccccc1)NS(=O)(=O)c1ccc(Cl)cc1, which “hERG current change (%, negative = inhibition) at 10uM” value is on record?
**A.** 22%

**Q.** CCN(CC)C(=O)c1cnn(-c2ccccc2)c1NC(=O)c1ccco1 was tested. Which “hERG current change (%, negative = inhibition) at 10uM” value did it give?
**A.** -12.8%

**Q.** Which “hERG current change (%, negative = inhibition) at 10uM” value does the source give for O=C1Nc2cc(C(=O)NCCN3CCCCCC3)ccc2S/C1=C\c1ccccc1 here?
**A.** -43.9%

**Q.** O=C(CCNC(=O)c1ccc(Cl)cc1)NN1C(=O)NC2(CCCCC2)C1=O was tested. Which “hERG current change (%, negative = inhibition) at 10uM” value did it give?
**A.** -4.24%

**Q.** With CC(C)(C)C(=O)Nc1ccnn1C1CCN(C(=O)c2cccc(Cl)c2)CC1 as the compound, how does the “hERG current change (%, negative = inhibition) at 10uM” value read?
**A.** 6.09%

**Q.** Which “hERG current change (%, negative = inhibition) at 10uM” value does the source give for N#C/C(C(N)=O)=C1/SC=C(c2ccccc2)N1c1ccccc1 here?
**A.** 10.3%

**Q.** With Cc1ccc(S(=O)(=O)c2cc3ccccc3oc2=Nc2ccc3c(c2)OCO3)cc1 as the compound, how does the “hERG current change (%, negative = inhibition) at 10uM” value read?
**A.** 4.43%

**Q.** With CC(=O)c1ccc(OCc2cc(C(=O)N(C)CCOc3ccc(C)cc3)no2)cc1 as the compound, how does the “hERG current change (%, negative = inhibition) at 10uM” value read?
**A.** -0.168%

**Q.** FC(F)(F)c1cccc(-c2nnc3ccc(C(F)(F)F)cn23)c1 was tested. Which “hERG current change (%, negative = inhibition) at 10uM” value did it give?
**A.** -65.2%

From paper PMC4336329 (PLoS ONE, 2015)
